# Test results as given in the supplement of paper PMC8728848.
# Some of the results follow.
# What was measured:
# Assay in all cases: glycan array binding signal (z-score within array); higher = stronger binding
# Conditions in all cases: glycan notation: IUPAC condensed, linker removed
# [1] = molecular target: GlcNAc(a1-6)Gal(b1-4)GlcNAc
# How it was run: (§1)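 The binding signal is a Z-score computed within each array. Data were drawn from 3228 arrays in the Consortium for Functional Glycomics database, restricted to those with a known protein sequence. Scores were averaged over arrays of the same protein sequence at different concentrations or buffers, and over linkers, and negative values can be taken as non-binding.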
# [2] = molecular target: GlcNAc(b1-2)Gal(b1-3)GalNAc
# How it was run: as §1
# [3] = molecular target: GlcNAc(b1-2)Man(a1-3)[GlcNAc(b1-2)Man(a1-6)]Man(b1-4)GlcNAc(b1-4)GlcNAc
# How it was run: as §1
# [4] = molecular target: GlcNAc(b1-2)Man(a1-3)[GlcNAc(b1-2)Man(a1-6)]Man(b1-4)GlcNAc(b1-4)[Fuc(a1-6)]GlcNAc
# How it was run: as §1
# [5] = molecular target: GlcNAc(b1-2)Man(a1-3)[GlcNAc(b1-4)][GlcNAc(b1-2)Man(a1-6)]Man(b1-4)GlcNAc(b1-4)GlcNAc
# How it was run: as §1
# [6] = molecular target: GlcNAc(b1-2)Man(a1-3)[GlcNAc(b1-4)][GlcNAc(b1-2)Man(a1-6)]Man(b1-4)GlcNAc(b1-4)[Fuc(a1-6)]GlcNAc
# How it was run: as §1
# [7] = molecular target: GlcNAc(b1-2)[GlcNAc(b1-4)]Man(a1-3)[GlcNAc(b1-2)Man(a1-6)]Man(b1-4)GlcNAc(b1-4)GlcNAc
# How it was run: as §1
# [8] = molecular target: GlcNAc(b1-2)[GlcNAc(b1-4)]Man(a1-3)[GlcNAc(b1-4)][GlcNAc(b1-2)Man(a1-6)]Man(b1-4)GlcNAc(b1-4)GlcNAc
# How it was run: as §1
# [9] = molecular target: GlcNAc(b1-2)[GlcNAc(b1-4)]Man(a1-3)[GlcNAc(b1-4)][GlcNAc(b1-2)[GlcNAc(b1-6)]Man(a1-6)]Man(b1-4)GlcNAc(b1-4)GlcNAc
# How it was run: as §1
# [10] = molecular target: GlcNAc(b1-2)[GlcNAc(b1-4)]Man(a1-3)[GlcNAc(b1-4)][GlcNAc(b1-2)[GlcNAc(b1-6)]Man(a1-6)]Man(b1-4)GlcNAc(b1-4)[Fuc(a1-6)]GlcNAc
# How it was run: as §1
# [11] = molecular target: GlcNAc(b1-2)[GlcNAc(b1-6)]Man(a1-6)[GlcNAc(b1-2)Man(a1-3)]Man(b1-4)GlcNAc(b1-4)GlcNAc
# How it was run: as §1
# [12] = molecular target: GlcNAc(b1-2)[GlcNAc(b1-6)]Man(a1-6)[GlcNAc(b1-2)Man(a1-3)]Man(b1-4)GlcNAc(b1-4)[Fuc(a1-6)]GlcNAc
# How it was run: as §1
# [13] = molecular target: GlcNAc(b1-2)[GlcNAc(b1-6)]Man(a1-6)[GlcNAc(b1-4)][GlcNAc(b1-2)Man(a1-3)]Man(b1-4)GlcNAc(b1-4)GlcNAc
# How it was run: as §1
# GlcNAc(b1-3)Fuc = molecular target: GlcNAc(b1-3)Fuc
# How it was run: as §1
# GlcNAc(b1-3)Gal = molecular target: GlcNAc(b1-3)Gal
# How it was run: as §1
# [14] = molecular target: GlcNAc(b1-3)Gal(b1-3)GalNAc
# How it was run: as §1
# GlcNAc(b1-3)Gal(b1-4)Glc = molecular target: GlcNAc(b1-3)Gal(b1-4)Glc
# How it was run: as §1
# [15] = molecular target: GlcNAc(b1-3)Gal(b1-4)GlcNAc
# How it was run: as §1
# [16] = molecular target: GlcNAc(b1-3)Gal(b1-4)GlcNAc(b1-2)Man(a1-3)[GlcNAc(b1-3)Gal(b1-4)GlcNAc(b1-2)Man(a1-6)]Man(b1-4)GlcNAc(b1-4)GlcNAc
# How it was run: as §1
# [17] = molecular target: GlcNAc(b1-3)Gal(b1-4)GlcNAc(b1-2)Man(a1-3)[GlcNAc(b1-3)Gal(b1-4)GlcNAc(b1-2)Man(a1-6)]Man(b1-4)GlcNAc(b1-4)[Fuc(a1-6)]GlcNAc
# How it was run: as §1
# [18] = molecular target: GlcNAc(b1-3)Gal(b1-4)GlcNAc(b1-2)[GlcNAc(b1-3)Gal(b1-4)GlcNAc(b1-6)]Man(a1-6)[GlcNAc(b1-3)Gal(b1-4)GlcNAc(b1-2)Man(a1-3)]Man(b1-4)GlcNAc(b1-4)GlcNAc
# How it was run: as §1
# [19] = molecular target: GlcNAc(b1-3)Gal(b1-4)GlcNAc(b1-3)Gal(b1-4)GlcNAc
# How it was run: as §1
# [20] = molecular target: GlcNAc(b1-3)Gal(b1-4)GlcNAc(b1-3)Gal(b1-4)GlcNAc(b1-2)Man(a1-3)[GlcNAc(b1-3)Gal(b1-4)GlcNAc(b1-3)Gal(b1-4)GlcNAc(b1-2)Man(a1-6)]Man(b1-4)GlcNAc(b1-4)GlcNAc
# How it was run: as §1
# [21] = molecular target: GlcNAc(b1-3)Gal(b1-4)GlcNAc(b1-3)Gal(b1-4)GlcNAc(b1-2)Man(a1-3)[GlcNAc(b1-3)Gal(b1-4)GlcNAc(b1-3)Gal(b1-4)GlcNAc(b1-2)Man(a1-6)]Man(b1-4)GlcNAc(b1-4)[Fuc(a1-6)]GlcNAc
# How it was run: as §1
# [22] = molecular target: GlcNAc(b1-3)Gal(b1-4)GlcNAc(b1-3)Gal(b1-4)GlcNAc(b1-2)[GlcNAc(b1-3)Gal(b1-4)GlcNAc(b1-3)Gal(b1-4)GlcNAc(b1-6)]Man(a1-6)[GlcNAc(b1-3)Gal(b1-4)GlcNAc(b1-3)Gal(b1-4)GlcNAc(b1-2)Man(a1-3)]Man(b1-4)GlcNAc(b1-4)[Fuc(a1-6)]GlcNAc
# How it was run: as §1
# [23] = molecular target: GlcNAc(b1-3)Gal(b1-4)GlcNAc(b1-3)Gal(b1-4)GlcNAc(b1-3)Gal(b1-4)GlcNAc(b1-2)Man(a1-3)[GlcNAc(b1-3)Gal(b1-4)GlcNAc(b1-3)Gal(b1-4)GlcNAc(b1-3)Gal(b1-4)GlcNAc(b1-2)Man(a1-6)]Man(b1-4)GlcNAc(b1-4)GlcNAc
# How it was run: as §1
# [24] = molecular target: GlcNAc(b1-3)Gal(b1-4)GlcNAc(b1-3)Gal(b1-4)GlcNAc(b1-3)Gal(b1-4)GlcNAc(b1-2)Man(a1-3)[GlcNAc(b1-3)Gal(b1-4)GlcNAc(b1-3)Gal(b1-4)GlcNAc(b1-3)Gal(b1-4)GlcNAc(b1-2)Man(a1-6)]Man(b1-4)GlcNAc(b1-4)[Fuc(a1-6)]GlcNAc
# How it was run: as §1
# [25] = molecular target: GlcNAc(b1-3)Gal(b1-4)GlcNAc(b1-3)Gal(b1-4)GlcNAc(b1-3)Gal(b1-4)GlcNAc(b1-2)[GlcNAc(b1-3)Gal(b1-4)GlcNAc(b1-3)Gal(b1-4)GlcNAc(b1-3)Gal(b1-4)GlcNAc(b1-6)]Man(a1-6)[GlcNAc(b1-3)Gal(b1-4)GlcNAc(b1-3)Gal(b1-4)GlcNAc(b1-3)Gal(b1-4)GlcNAc(b1-2)Man(a1-3)]Man(b1-4)GlcNAc(b1-4)[Fuc(a1-6)]GlcNAc
# How it was run: as §1
# [26] = molecular target: GlcNAc(b1-3)Gal(b1-4)GlcNAc(b1-3)Gal(b1-4)GlcNAc(b1-3)Gal(b1-4)GlcNAc(b1-3)Gal(b1-4)GlcNAc(b1-2)Man(a1-3)[GlcNAc(b1-3)Gal(b1-4)GlcNAc(b1-3)Gal(b1-4)GlcNAc(b1-3)Gal(b1-4)GlcNAc(b1-3)Gal(b1-4)GlcNAc(b1-2)Man(a1-6)]Man(b1-4)GlcNAc(b1-4)GlcNAc
# How it was run: as §1
# [27] = molecular target: GlcNAc(b1-3)Gal(b1-4)GlcNAc(b1-3)Gal(b1-4)GlcNAc(b1-3)Gal(b1-4)GlcNAc(b1-3)Gal(b1-4)GlcNAc(b1-2)Man(a1-3)[GlcNAc(b1-3)Gal(b1-4)GlcNAc(b1-3)Gal(b1-4)GlcNAc(b1-3)Gal(b1-4)GlcNAc(b1-3)Gal(b1-4)GlcNAc(b1-2)Man(a1-6)]Man(b1-4)GlcNAc(b1-4)[Fuc(a1-6)]GlcNAc
# How it was run: as §1
# [28] = molecular target: GlcNAc(b1-3)Gal(b1-4)GlcNAc(b1-3)Gal(b1-4)GlcNAc(b1-3)Gal(b1-4)GlcNAc(b1-3)Gal(b1-4)GlcNAc(b1-2)[GlcNAc(b1-3)Gal(b1-4)GlcNAc(b1-3)Gal(b1-4)GlcNAc(b1-3)Gal(b1-4)GlcNAc(b1-3)Gal(b1-4)GlcNAc(b1-6)]Man(a1-6)[GlcNAc(b1-3)Gal(b1-4)GlcNAc(b1-3)Gal(b1-4)GlcNAc(b1-3)Gal(b1-4)GlcNAc(b1-3)Gal(b1-4)GlcNAc(b1-2)Man(a1-3)]Man(b1-4)GlcNAc(b1-4)[Fuc(a1-6)]GlcNAc
# How it was run: as §1
# [29] = molecular target: GlcNAc(b1-3)Gal(b1-4)GlcNAc(b1-3)Gal(b1-4)GlcNAc(b1-3)GalNAc
# How it was run: as §1
# [30] = molecular target: GlcNAc(b1-3)Gal(b1-4)GlcNAc(b1-3)GalNAc
# How it was run: as §1
# [31] = molecular target: GlcNAc(b1-3)Gal(b1-4)GlcNAc(b1-3)[GlcNAc(b1-3)Gal(b1-4)GlcNAc(b1-3)]GalNAc
# How it was run: as §1
# [32] = molecular target: GlcNAc(b1-3)Gal(b1-4)GlcNAc(b1-6)[Gal(b1-3)]GalNAc
# How it was run: as §1
# [33] = molecular target: GlcNAc(b1-3)Gal(b1-4)GlcNAc(b1-6)[GlcNAc(b1-3)Gal(b1-3)]GalNAc
# How it was run: as §1
# [34] = molecular target: GlcNAc(b1-3)Gal(b1-4)GlcNAc(b1-6)[GlcNAc(b1-3)]Gal(b1-4)GlcNAc
# How it was run: as §1
binder,measurement,setting,value
DC-ASGPR L+GEE (Homo sapiens) (protein) MTRTYENFQYLENKVKVQGFKNGPLPLQSLLQRLRSGPCHLLLSLGLGLLLLVIICVVGFQNSKFQRDLVTLRTDFSNFTSNTVAEIQALTSQGSSLEETIASLKAEVEGFKQERQAGVSELQEHTTQKAHLGHCPHCPSVCVPVHSEMLLRVQQLVQDLKKLTCQVATLNNNGEEASTEGTCCPVNWVEHQDSCYWFSHSGMSWAEAEKYCQLKNAHLVVINSREEQNFVQKYLGSAYTWMGLSDPEGAWKWVDGTDYATGFQNWKPGQPDDWQGHGLGGGEDCAHFHPDGRWNDDVCQRPYHWVCEAGLGQTSQESH,glycan array binding signal (z-score),[1],-0.323
same,glycan array binding signal (z-score),[2],0.079
same,glycan array binding signal (z-score),[3],-0.307
same,glycan array binding signal (z-score),[4],-0.25
same,glycan array binding signal (z-score),[5],-0.461
same,glycan array binding signal (z-score),[6],-0.392
same,glycan array binding signal (z-score),[7],-0.298
same,glycan array binding signal (z-score),[8],-0.37
same,glycan array binding signal (z-score),[9],-0.359
same,glycan array binding signal (z-score),[10],0.115
same,glycan array binding signal (z-score),[11],-0.312
same,glycan array binding signal (z-score),[12],-0.268
same,glycan array binding signal (z-score),[13],-0.217
same,glycan array binding signal (z-score),GlcNAc(b1-3)Fuc,-0.669
same,glycan array binding signal (z-score),GlcNAc(b1-3)Gal,-0.121
same,glycan array binding signal (z-score),[14],-0.27
same,glycan array binding signal (z-score),GlcNAc(b1-3)Gal(b1-4)Glc,-0.031
same,glycan array binding signal (z-score),[15],-0.217
same,glycan array binding signal (z-score),[16],-0.024
same,glycan array binding signal (z-score),[17],0.045
same,glycan array binding signal (z-score),[18],0.114
same,glycan array binding signal (z-score),[19],-0.3
same,glycan array binding signal (z-score),[20],0.53
same,glycan array binding signal (z-score),[21],-0.152
same,glycan array binding signal (z-score),[22],0.194
same,glycan array binding signal (z-score),[23],-0.234
same,glycan array binding signal (z-score),[24],-0.283
same,glycan array binding signal (z-score),[25],-0.052
same,glycan array binding signal (z-score),[26],-0.085
same,glycan array binding signal (z-score),[27],0.512
same,glycan array binding signal (z-score),[28],0.566
same,glycan array binding signal (z-score),[29],0.01
same,glycan array binding signal (z-score),[30],-0.202
same,glycan array binding signal (z-score),[31],-0.4
same,glycan array binding signal (z-score),[32],-0.411
same,glycan array binding signal (z-score),[33],0.098
same,glycan array binding signal (z-score),[34],-0.159
